# Results from PubChem BioAssay AID588549 (Broad Institute, 2011).
# About 780 (0.22%) of roughly 360,000 compounds were called active. This list was built around the results that the source calls inconclusive (neither active nor inactive); the mix of calls is not that of the screen. Cut-off read from the data, not from the text of the source: active = inhibition above about 8.5% (passing the limit was not always enough); inconclusive = no clear call, values can overlap the other calls.
# Tested on: Mycobacterium tuberculosis FadD28 fatty-acid-AMP ligase
# Test: inhibitors of FadD28 bisubstrate probe binding, primary screen, biochemical, fluorescence polarization, single point (AID 588549)
# Details: at 12.5 µM, stronger effect = higher value
row,Compound,inhibition
1,Cc1ccc(C=C2C=C(c3ccccc3)OC2=O)cc1,inactive: -0.858%
2,CSc1ccc(NC(=O)Nc2ccc(C(=O)NCC(=O)O)cc2)cc1,active: 10.5%
3,CC(=O)NNC(=S)Nc1cccc(F)c1,inconclusive: 4.73%
4,COc1cc(/C=C(\C#N)C(=O)c2ccc(O)c(O)c2)cc(I)c1O,active: 12.1%
5,O=C(O)CCNc1cc(N2CCN(C(=O)c3ccco3)CC2)c2noc3c2c1C(=O)c1ccccc1-3,active: 22.2%
6,CC(C)n1cc(/C=C/c2cc[n+](C)cc2)c2ccccc21,inactive: -1.64%
7,C#CCOCCOCCOCCNc1nc(N2CCN(C(=O)CCCCCCCCCCNC(=O)Cn3cc(C[C@@H](C)O)nn3)CC2)nc(N2CCN(C(=O)CCCCCCCCCCNC(=O)[C@H](CCCN=C(N)N)n3cc(C[C@@H](C)CC)nn3)CC2)n1,inconclusive: 6.39%
8,N#Cc1c(N2CCCCC2)nc(N)c2c(N)nc(SCC(=O)O)cc12,inconclusive: 6.31%
9,CCOc1ccc(OCCNC2CCCC2)cc1,inconclusive: 6.83%
10,Nc1ccc2nc3c(=O)[nH]c(=S)[nH]c3nc2c1,inconclusive: 7.77%
11,O=C(CC(=O)Nc1ccccc1[N+](=O)[O-])Nc1ccccc1[N+](=O)[O-],inconclusive: 12.1%
12,CCCCOCCCNC(=O)N[C@@H](CCSC)C(=O)OC,inactive: -3.99%
13,O=C1C=C(O)CC(c2ccco2)C1 (centres undefined),inconclusive: 8.98%
14,O=C1ON=C(c2cccc([N+](=O)[O-])c2)/C1=C/c1ccc(O)cc1,inconclusive: 7.06%
15,CCCC(C(=O)NCCC(C)C)N(Cc1ccccc1)C(=O)c1snc(C(N)=O)c1N (centres undefined),inconclusive: 3.65%
16,Cc1ccc(C(=O)N2C3C=CC(C3)C2(C(F)(F)F)C(F)(F)F)cc1 (centres undefined),inactive: 0.434%
17,Nc1ccc2cc3[nH]c4cc(N)ccc4c3nc2c1,inconclusive: 3.18%
18,CC(=O)c1ccc(NC(=O)Nc2ccc3c(c2)N(C)C(=O)CS3)cc1,inconclusive: 8.29%
19,COc1ccc(S(=O)(=O)N2CCCCCC2)cc1NC(=O)c1ccccc1S(C)(=O)=O,inconclusive: 66.5%
20,COC(=O)CC1C(=O)NCCN1C(=O)c1ccc(S(=O)(=O)N2CCOCC2)cc1 (centres undefined),active: 14%
21,Cc1[nH]c2ccccc2c1C(C#N)(C#N)C1C(=O)c2ccccc2C1=O,active: 17.9%

row,Compound,inhibition
1,COc1ccc(CCNC(=O)c2ccc(NS(=O)(=O)c3ccc4[nH]c(=O)[nH]c4c3)cc2)cc1,inconclusive: 37.7%
2,O=S1(=O)N=C(N(CCO)/N=C/c2ccc(Cl)cc2)c2ccccc21,inactive: -0.902%
3,O=C(Nc1nc(COc2ccccc2)cs1)c1ccccc1F,inconclusive: 8.16%
4,O=C(Cc1ccc(F)cc1)N1CCC(CC2CC(c3ccc(Cl)cc3)=NO2)(C(=O)NCC2CCCCC2)CC1 (centres undefined),inconclusive: 6.87%
5,COc1cccc(CNC(=O)COc2cc(O)c3c(c2)OC(C)(C)CC3=O)c1,inconclusive: 8.38%
6,O=C(/C=C/c1ccco1)Nc1sc2c(c1C(=O)O)CCC2,inconclusive: 7.55%
7,CC(=O)Nc1ccc(NC(=O)CSc2nc3nc(C)cc(C)c3c(=O)[nH]2)cc1,inconclusive: 7.83%
8,O=C1/C(=N\S(=O)(=O)c2cccs2)C([n+]2cccc(Cc3ccccc3)c2)=C([O-])c2ccccc21,inconclusive: 7.85%
9,COc1ccc(OC)c(-c2c3cc(O)c(=O)cc-3oc3cc(O)c(O)cc23)c1,active: 102%
10,COc1cccc(-n2nnnc2SCC(=O)Nc2cccc(C)n2)c1,inconclusive: 10.8%
11,c1ccc(-c2csc3nnc(SCc4ccc5c(c4)OCCO5)n23)cc1,inactive: -6.74%
12,Cc1cc(C)n2nc(C(=O)N3CCN(c4ccc([N+](=O)[O-])cc4)CC3)nc2n1,inactive: 0.214%
13,Cc1cc(/C=N/n2cnnc2)c(C)n1-c1ccc(OCc2ccc(F)cc2)cc1,inactive: -3.65%
14,Cc1cccc(C(=O)NNC(=O)c2ccc(NS(=O)(=O)c3cccs3)cc2)c1C,active: 12.6%
15,CNc1nc2sc3c(c2c(=O)n1C)CC(C)(C)SC3,inactive: -4.95%
16,Nc1ccn([C@@H]2O[C@H](CNCc3ccc(OCC(=O)Nc4nccs4)cc3)[C@@H](O)[C@H]2O)c(=O)n1,inactive: 0.517%
17,FC(F)(F)c1cnc(C(c2ccccn2)c2ncn[nH]2)c(Cl)c1 (centres undefined),inconclusive: 16.9%
18,Cc1ccccc1-c1cc2nc(NCc3ccccc3)n(C)c(=O)c2s1,inconclusive: 0.37%
19,N#CC1=C(N)OC2=C(C(=O)CCC2)C1c1cc2c(cc1Cl)OCO2 (centres undefined),inconclusive: 4.72%
20,CCN(CC)S(=O)(=O)c1ccc(NC(=O)COC(=O)c2cc(S(=O)(=O)Nc3ccc(OC)cc3)ccc2O)cc1,inconclusive: 6.11%
21,Cc1ccc(C)c(OCCC(=O)OCC(=O)Nc2cccc(S(=O)(=O)N3CCCC3)c2)c1,inconclusive: 7.38%

row,Compound,inhibition
1,O=c1oc2cc(Oc3c([N+](=O)[O-])cc(C(F)(F)F)cc3[N+](=O)[O-])ccc2c2c1CCCC2,inactive: 1.28%
2,CCn1ncc(NC(=S)NCCc2ccccc2)c1C(N)=O,inconclusive: 6.07%
3,O=C(CNC(=O)c1nc[nH]c1C(=O)NCC(=O)OCc1ccccc1)OCc1ccccc1,inconclusive: 7.9%
4,Cc1ccc(OCc2nc(-c3ccccn3)no2)cc1,inconclusive: 6.06%
5,CC[C@@H]1Cc2cc(O)ccc2C2=C1c1ccc(O)cc1C[C@H]2CC,inconclusive: 7.23%
6,Cc1ccc(C)c(NS(=O)(=O)c2ccc(NC(=O)CSc3ccc(Cl)cc3)cc2)c1,inconclusive: 3.11%
7,C=CCNC(=O)CN1CCC(c2nc3cc(C)c(C)cc3[nH]2)CC1,inconclusive: 6.96%
8,CC(=O)Nc1ccc(NC(=O)CSc2nnc(N)n2-c2ccccc2)cc1,inactive: -0.009%
9,Cc1cc(=O)oc2c(CN3CCN(CCO)CC3)c(O)ccc12,inconclusive: 5.79%
10,Cn1cc(/C=C2\SC(=S)N(NC(=O)c3ccccc3Cl)C2=O)c2ccccc21,inconclusive: 9.88%
11,O=C(OCC(=O)c1c[nH]c2ccccc12)c1ccc(F)c(S(=O)(=O)N2CCOCC2)c1,inconclusive: 9.96%
12,O=C(NCc1n[nH]c(=S)n1-c1ccccc1)c1ccco1,inconclusive: 8.5%
13,CC1(C)CC(=O)C(C(c2ccncc2)C2C(=O)CC(C)(C)CC2=O)C(=O)C1,inconclusive: 8.38%
14,Cc1c2c(=O)n(-c3nc4ccccc4s3)nc-2cc(O)n1Cc1ccccc1,inconclusive: 3.45%
15,C[C@H](CO)N1C[C@H](C)[C@H](CN(C)S(=O)(=O)c2cn(C)cn2)Oc2ccc(NC(=O)Nc3ccc(C(F)(F)F)cc3)cc2CC1=O,inconclusive: 7.53%
16,Cc1cc(-c2cc(C)c(N)cc2C)c(C)cc1N,inconclusive: 7.12%
17,CCCCCCCCCCCCCCC(O)C[N+](C)(CCO)CCO (centres undefined),active: 16.8%
18,COCc1cc(=O)n2[nH]c(-c3cccc(Br)c3)cc2n1,inactive: -3.71%
19,COc1ccc(OC)c(NC(=O)C2=C(C)Nc3ncnn3C2c2cccs2)c1 (centres undefined),inactive: -4.46%
20,Cc1cccc(CSCCNC(=O)c2ccc(N(C)S(=O)(=O)c3ccccc3)cc2)c1,inconclusive: 11.4%
21,CC1=NN(c2ccc([N+](=O)[O-])cc2)C(=O)C1,active: 13.8%

row,Compound,inhibition
1,CC1CCCCN1C(=O)CCS(=O)(=O)c1cccc2nonc12 (centres undefined),inconclusive: 3.88%
2,COc1ccccc1-c1nc(C#N)c(NCc2ccc(F)cc2)o1,inactive: -2.44%
3,O=C(O)/C=C/C(=O)Nc1ccc2c(c1)C(=O)c1ccccc1C2=O,inconclusive: 6.83%
4,CN(C)C=NCCn1c(N2CCOCC2)nc2c1c(=O)n(C)c(=O)n2C,inconclusive: 3.91%
5,Cc1ccccc1CS(=O)(=O)Cc1ccc(C(=O)NCc2ccco2)o1,inconclusive: 5.09%
6,O=C(O)CCCc1nc(-c2ccccc2)no1,inconclusive: 8.92%
7,CC(C)(C)c1ccc(Cn2nnc3c(=O)[nH]c(C4CCCN(C(=O)c5ccco5)C4)nc32)cc1 (centres undefined),inconclusive: 9.55%
8,O=C(Nc1nccs1)c1ccc(COc2ccccc2Br)o1,inactive: -1.32%
9,COc1cc(/C=C2/C(=O)NN(c3ccc(C)c(Cl)c3)C2=O)cc([N+](=O)[O-])c1O,active: 29.9%
10,COc1cc2c3c(c1)/C(=C1/SC(NC(C)=O)=NC1=O)C(=O)N3C(C)(C)C=C2C,inconclusive: 8.22%
11,CC(=O)C1C(c2cccc([N+](=O)[O-])c2)C2C(C)=NN=C2CC1(C)O (centres undefined),inconclusive: 2.64%
12,O=c1oc2c(CN3CCOCC3)c(O)c(Cl)cc2c2c1CCCC2,inconclusive: 4.21%
13,COc1ccc(OC)c(Nc2c3c(nc4ccccc24)CCC3)c1,inactive: -3.29%
14,O=[N+]([O-])c1cc([N+](=O)[O-])c(N2CCOCC2)cc1NCc1ccccc1,inactive: -2.32%
15,CSc1ccc(C(c2c(C(=O)O)[nH]c3ccccc23)c2c(C(=O)O)[nH]c3ccccc23)cc1,active: 38.2%
16,Cc1cccc(NC(=S)N/N=C/c2cccc(O)c2)c1C,inactive: -4.6%
17,Cc1ccc(C(c2c(C)[nH][nH]c2=O)c2c(C)[nH][nH]c2=O)cc1,inactive: -1.5%
18,CCOC(=O)CNC(=O)Cn1cnc2c(cnn2-c2ccc(C)cc2)c1=O,inconclusive: 3.62%
19,CCCCOc1ccc(C2OC34CCCCC3C(C#N)(C#N)C2(C#N)C(=N)O4)cc1 (centres undefined),inconclusive: 6.88%
20,O=C1C(=O)c2cccnc2-c2ncccc21,inconclusive: 9.29%
21,COc1ccc(N2C(=O)NC(=O)/C(=C\c3ccc([N+](=O)[O-])s3)C2=O)cc1,active: 35.6%
